In the BET-seq Pho4 binding data (Le et al. 2018):
Some of the results follow. These are noisy estimates, calculated here from bound and input reads.

These sequences were tested against T1, Pho4 (S. cerevisiae) (UniProt P07270) (assay: relative binding free energy (BET-seq); higher = weaker binding). Settings: reference: library average.
T1 sequence: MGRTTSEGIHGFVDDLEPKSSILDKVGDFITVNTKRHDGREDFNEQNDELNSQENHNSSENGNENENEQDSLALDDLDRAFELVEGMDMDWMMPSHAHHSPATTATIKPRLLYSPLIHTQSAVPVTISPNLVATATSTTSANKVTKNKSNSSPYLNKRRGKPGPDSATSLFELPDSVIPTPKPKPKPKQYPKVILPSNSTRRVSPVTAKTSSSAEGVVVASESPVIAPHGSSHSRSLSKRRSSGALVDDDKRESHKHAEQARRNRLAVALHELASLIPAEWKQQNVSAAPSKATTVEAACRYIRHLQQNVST

Sequence	relative binding free energy
TGTTACACGTGCATTT	0.19 kcal/mol
CTAAGCACGTGGGGGG	-0.31 kcal/mol
GGTGGCACGTGTGTCT	-0.04 kcal/mol
GATGACACGTGGTGGT	-0.06 kcal/mol
TGGGTCACGTGTGGCA	0.19 kcal/mol
ATGTGCACGTGGCGAG	0.01 kcal/mol
GACGTCACGTGTTAAG	0.35 kcal/mol
GGTCACACGTGTGGTC	0.18 kcal/mol
GAAGTCACGTGTGGTC	0.17 kcal/mol
GGAATCACGTGTGATA	0.16 kcal/mol
GATTACACGTGCTGTT	0.12 kcal/mol
GGCAACACGTGGTTTG	0.04 kcal/mol
TAGTGCACGTGTAAGG	0.1 kcal/mol
TGAGGCACGTGATTAT	-0.16 kcal/mol
GAGTGCACGTGTGGTA	0.19 kcal/mol
TAGGACACGTGTCAGT	0.03 kcal/mol
TTCTTCACGTGTTGTA	0.24 kcal/mol
CTTTGCACGTGGCGTG	-0.12 kcal/mol
AATGTCACGTGGCTTG	0.06 kcal/mol
GGCGACACGTGGGGCG	-0.15 kcal/mol
AGGTTCACGTGGTCCG	0.2 kcal/mol
GTGTGCACGTGGGGGG	-0.16 kcal/mol
TTTGTCACGTGGGTGT	0.03 kcal/mol
ACCTTCACGTGTAGGG	0.3 kcal/mol
CTTTTCACGTGGTGGT	0.18 kcal/mol
TTTGGCACGTGCGGGC	-0.21 kcal/mol

Sequence	relative binding free energy
CGTTGCACGTGGAGCT	0.02 kcal/mol
TTAGGCACGTGTATAT	-0.07 kcal/mol
ATAGACACGTGGTGGG	-0.05 kcal/mol
GGTTGCACGTGAGGAA	0.31 kcal/mol
TTCTTCACGTGGTATA	0.26 kcal/mol
ATTATCACGTGTCGCG	0.29 kcal/mol
TTTTGCACGTGCGATA	0 kcal/mol
TTGGTCACGTGACATT	0.18 kcal/mol
GGTGTCACGTGGTTTT	0.13 kcal/mol
TCGGACACGTGGGTGG	-0.08 kcal/mol
TATGGCACGTGCGGCG	-0.13 kcal/mol
AGAGGCACGTGAATTT	0.17 kcal/mol
CGGTGCACGTGTGATA	0.12 kcal/mol
TTTCGCACGTGACATG	0.2 kcal/mol
GTCGGCACGTGGCAGT	-0.13 kcal/mol
AGGACCACGTGGGGGG	-0.23 kcal/mol
ATTAACACGTGGATTT	-0.2 kcal/mol
TGGTGCACGTGGGCGA	0 kcal/mol
GTAGGCACGTGAGGTG	0.19 kcal/mol
GAGGTCACGTGTTTTT	0.16 kcal/mol
TCGTTCACGTGGATAG	0.28 kcal/mol
TATGTCACGTGACTAG	0.09 kcal/mol
ACAGTCACGTGTTTAT	0.16 kcal/mol
CTGGACACGTGTGATT	0.2 kcal/mol
TGCTGCACGTGTGATA	-0.03 kcal/mol
GCGATCACGTGTGAGT	0.39 kcal/mol

Sequence	relative binding free energy
TTAAACACGTGTATTG	0 kcal/mol
CCTTGCACGTGAGGTT	0.19 kcal/mol
TTGGCCACGTGAGTGG	0.19 kcal/mol
TTCTGCACGTGTGATA	-0.03 kcal/mol
AATCGCACGTGTTGGA	0.04 kcal/mol
TTTGTCACGTGATGAA	0.14 kcal/mol
GGAGCCACGTGGGTGT	-0.14 kcal/mol
TTAGTCACGTGAAGCG	0.24 kcal/mol
TTAAGCACGTGAGATA	0.43 kcal/mol
GTTGCCACGTGTTAAG	0.11 kcal/mol
GGTTACACGTGTCGAA	0.28 kcal/mol
TTTGCCACGTGTTGAG	-0.13 kcal/mol
GAAGTCACGTGAAGTT	0.44 kcal/mol
TGATGCACGTGGAGTG	-0.03 kcal/mol
AGGGTCACGTGCTGGT	-0.05 kcal/mol
CGTGGCACGTGCGGTA	-0.23 kcal/mol
GGAACCACGTGGGGCG	-0.02 kcal/mol
TATCGCACGTGAAGTT	0.22 kcal/mol
CTCGTCACGTGGTTTG	0.17 kcal/mol
TTAAGCACGTGCGGTT	-0.19 kcal/mol
ATTTTCACGTGACGTT	0.36 kcal/mol
GTTTACACGTGTTGTT	0.18 kcal/mol
TAGTGCACGTGTAGGG	-0.01 kcal/mol
GTAGTCACGTGAGAGG	0.37 kcal/mol
TAAGGCACGTGTGGAA	-0.1 kcal/mol
AGTTGCACGTGTTGTG	0.09 kcal/mol

Sequence	relative binding free energy
TGCGTCACGTGGTATG	0.02 kcal/mol
GGAATCACGTGTAAGT	0.27 kcal/mol
ATATTCACGTGCTGTT	0.11 kcal/mol
CGTGTCACGTGGATGA	0.15 kcal/mol
GATTACACGTGGGGTT	0.05 kcal/mol
TTGGACACGTGTAGTT	0.05 kcal/mol
ATGGGCACGTGATACG	-0.02 kcal/mol
TAGGTCACGTGTGTGA	0.14 kcal/mol
GGGAGCACGTGATCGG	0.12 kcal/mol
TTCAGCACGTGGCGGA	-0.04 kcal/mol
ATGTGCACGTGGGCTG	-0.16 kcal/mol
GGATTCACGTGCGTAG	0.31 kcal/mol
CGTCGCACGTGTTATG	0.06 kcal/mol
TTGTACACGTGGTACT	-0.01 kcal/mol
TAGAGCACGTGGTTCT	-0.19 kcal/mol
ATTGACACGTGTGGAT	0.02 kcal/mol
AGTAACACGTGGAGGG	0.01 kcal/mol
TGGGCCACGTGTTAAT	-0.01 kcal/mol
TATAACACGTGTTATA	-0.05 kcal/mol
TTGGTCACGTGTAGGA	0.12 kcal/mol
GTACGCACGTGTGGGG	-0.08 kcal/mol
ATTTTCACGTGAGGTA	0.42 kcal/mol
TGTGTCACGTGCTTTC	0.02 kcal/mol
GTTTCCACGTGTGGGC	0.12 kcal/mol
CTTTACACGTGTATGT	-0.12 kcal/mol
GGTCGCACGTGAGGCT	0.42 kcal/mol

Sequence	relative binding free energy
CGTGTCACGTGTGCGA	0.03 kcal/mol
ATGTACACGTGGGGAA	0.03 kcal/mol
TTGATCACGTGTGTAG	0.15 kcal/mol
TTTTGCACGTGGGGGG	-0.11 kcal/mol
TAGGTCACGTGCGAGG	0.06 kcal/mol
ACTAGCACGTGTTATG	0 kcal/mol
TTTTGCACGTGTCGTC	-0.06 kcal/mol
GATGGCACGTGTGTCT	0.06 kcal/mol
ATAGACACGTGGGGTA	-0.2 kcal/mol
CGGGTCACGTGCGGAT	0.07 kcal/mol
TTGTTCACGTGACGGC	0.35 kcal/mol
TGCGTCACGTGCATGT	0.11 kcal/mol
AGTATCACGTGAGTGC	0.25 kcal/mol
TGCGGCACGTGGGATT	-0.19 kcal/mol
TTTGGCACGTGGGTAG	-0.18 kcal/mol
CGGTTCACGTGTTAGT	0.34 kcal/mol
GTGGTCACGTGGAAGA	0.22 kcal/mol
AAAAGCACGTGAGGGG	0.11 kcal/mol
ACCGGCACGTGGGCGT	-0.13 kcal/mol
CGGCGCACGTGGGCTG	-0.33 kcal/mol
ATGTACACGTGGAGGT	-0.01 kcal/mol
GGTGGCACGTGTATCT	-0.05 kcal/mol
GGGATCACGTGTTTTC	0.28 kcal/mol
TTGTGCACGTGAATGA	0.19 kcal/mol
TGAGTCACGTGGAATT	0.17 kcal/mol
GATTTCACGTGCTTGG	0.4 kcal/mol

Sequence	relative binding free energy
AAGTTCACGTGAGAGA	0.44 kcal/mol
GGGCACACGTGGCGGT	-0.02 kcal/mol
GTATTCACGTGCCGGG	0.25 kcal/mol
GGTGCCACGTGAGGTT	0.3 kcal/mol
CATGGCACGTGTGAGG	-0.03 kcal/mol
TAGGTCACGTGTGTCC	0.27 kcal/mol
TAGTGCACGTGATTTG	0.12 kcal/mol
GCCGGCACGTGAGGGC	0.24 kcal/mol
TATTTCACGTGGTGTA	0.17 kcal/mol
ATTGTCACGTGGAAAA	0.2 kcal/mol
AGTTGCACGTGTATAG	0 kcal/mol
CGGGACACGTGTCTGT	0.05 kcal/mol
AAATGCACGTGAAGGG	0.29 kcal/mol
CAGTTCACGTGGGAGA	0.2 kcal/mol
GTTAACACGTGTGTAT	0.19 kcal/mol
GTCTTCACGTGCAGTG	0.34 kcal/mol
CGAAGCACGTGTAGGT	0.01 kcal/mol
AATGTCACGTGAGGGA	0.24 kcal/mol
GAGGACACGTGCTGGG	0.03 kcal/mol
AGTGTCACGTGGGTAT	-0.11 kcal/mol
TAAATCACGTGGTCTG	0.16 kcal/mol
TTTTGCACGTGGACTT	0.08 kcal/mol
GGGGGCACGTGGTGAG	-0.09 kcal/mol
CGTGGCACGTGACTGT	-0.08 kcal/mol
ACTTTCACGTGGGAGT	0.14 kcal/mol
TGGTTCACGTGAGTAA	0.34 kcal/mol

Sequence	relative binding free energy
GTTGTCACGTGATTTT	0.28 kcal/mol
ATGCGCACGTGGAGGG	-0.16 kcal/mol
TGTTTCACGTGAGGCG	0.38 kcal/mol
GTAGGCACGTGCTGGG	-0.12 kcal/mol
TTGTGCACGTGGTCGG	-0.06 kcal/mol
ACGGTCACGTGGGTGG	-0.05 kcal/mol
ACTGTCACGTGGCTTG	0.06 kcal/mol
AATGGCACGTGGGCCT	-0.19 kcal/mol
TTTTACACGTGTCATG	0.1 kcal/mol
TACTGCACGTGTTCGT	0.06 kcal/mol
ATTATCACGTGTGAGC	0.29 kcal/mol
CGTCACACGTGTGAGG	0.2 kcal/mol
GTAACCACGTGGGTTT	-0.07 kcal/mol
TTGGACACGTGTAACG	0.26 kcal/mol
TGTTGCACGTGGTTTC	0.05 kcal/mol
GTAGGCACGTGCGCGG	-0.34 kcal/mol
GGCTTCACGTGTGTTT	0.28 kcal/mol
CGAGGCACGTGAGAGG	0.09 kcal/mol
CCGTCCACGTGGGGGG	-0.17 kcal/mol
GAAGGCACGTGGATAG	-0.08 kcal/mol
AGATTCACGTGGTGTT	0.18 kcal/mol
ATATACACGTGGTTAG	-0.07 kcal/mol
GCGCGCACGTGAAGGG	0.13 kcal/mol
TGAATCACGTGACGAG	0.51 kcal/mol
ATGTGCACGTGGGTGG	-0.17 kcal/mol
GCTTTCACGTGTCTTT	0.37 kcal/mol

Sequence	relative binding free energy
ATAGACACGTGTTGGG	0.03 kcal/mol
GTTGACACGTGAGTCG	0.23 kcal/mol
GATTACACGTGGAGGG	-0.02 kcal/mol
CGTGTCACGTGAAGCG	0.3 kcal/mol
AATCGCACGTGGTTGT	-0.11 kcal/mol
GGAGGCACGTGAATTT	0.41 kcal/mol
TTGGACACGTGGCAGA	0.18 kcal/mol
TTAGTCACGTGGACAT	0.15 kcal/mol
CATGTCACGTGGTGTA	-0.06 kcal/mol
GGTCTCACGTGCAGGT	0.42 kcal/mol
ATGGGCACGTGCTTGT	-0.17 kcal/mol
GGACGCACGTGTTGGC	0.01 kcal/mol
TAATACACGTGGTAAG	-0.03 kcal/mol
GATTGCACGTGTCGAT	0.21 kcal/mol
TTTCGCACGTGTATTA	0.24 kcal/mol
AGGATCACGTGGGCGT	0.05 kcal/mol
TAGTTCACGTGGGATC	0.26 kcal/mol
CGTGGCACGTGATGGG	-0.06 kcal/mol
TGTAGCACGTGAATTA	0.12 kcal/mol
TAATTCACGTGTAGAA	0.24 kcal/mol
CGGTACACGTGGGGCA	-0.02 kcal/mol
GGAATCACGTGACGGG	0.32 kcal/mol
ATGGGCACGTGGTTGG	-0.08 kcal/mol
CGGATCACGTGGGTTT	0.03 kcal/mol
TTGTTCACGTGTCAGC	0.29 kcal/mol
CGGGACACGTGAATTG	0.29 kcal/mol

Sequence	relative binding free energy
AGTAGCACGTGCGTGA	-0.26 kcal/mol
GGGTCCACGTGGTGTA	0.1 kcal/mol
TTGTTCACGTGATAAG	0.35 kcal/mol
AGGGGCACGTGGTTGA	-0.2 kcal/mol
GGCGCCACGTGGGCGT	-0.25 kcal/mol
TTAAACACGTGGTGGG	-0.05 kcal/mol
AGGTCCACGTGTTAGT	-0.07 kcal/mol
AGGTTCACGTGCTCTG	0.26 kcal/mol
TGGCGCACGTGGCAGA	0.01 kcal/mol
GGGTACACGTGTGTAC	0.05 kcal/mol
TGACTCACGTGGCGGT	0.13 kcal/mol
GTGATCACGTGGGTAG	0.09 kcal/mol
TATGTCACGTGGGAAA	-0.09 kcal/mol
CGTGTCACGTGAACGG	0.21 kcal/mol
TTTAGCACGTGTAGAG	-0.12 kcal/mol
ATGTACACGTGGTACG	-0.03 kcal/mol
ATGTGCACGTGGCTAT	-0.17 kcal/mol
AGTATCACGTGACTGG	0.22 kcal/mol
GGACACACGTGGGTGC	0.04 kcal/mol
GTAGGCACGTGATTGC	-0.01 kcal/mol
GCGGGCACGTGTTATG	0.07 kcal/mol
TGCGCCACGTGGTTGG	-0.2 kcal/mol
